This is an account of results in PMC6919601, “Identification of Plasmodium dipeptidyl aminopeptidase allosteric inhibitors by high throughput screening” (PLoS ONE, 2019).

The campaign covered roughly 110,000 compounds. About 230 (0.21%) showed an effect of 50% or more. The list shows a part of the results.
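Further: 30 min substrate incubation versus DMSO and 10 µM JCP410 controls.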

In this experiment the target is DPAP1 (Plasmodium falciparum, UniProt Q8IIJ9). As to the kind of experiment: primary screen, percent inhibition; read by cleavage of a fluorogenic dipeptide substrate; higher = more effect of the substance. The arrangement: species or system P. falciparum D10 trophozoite lysates; single well.
Chain of DPAP1 (Q8IIJ9 whole entry, looked up): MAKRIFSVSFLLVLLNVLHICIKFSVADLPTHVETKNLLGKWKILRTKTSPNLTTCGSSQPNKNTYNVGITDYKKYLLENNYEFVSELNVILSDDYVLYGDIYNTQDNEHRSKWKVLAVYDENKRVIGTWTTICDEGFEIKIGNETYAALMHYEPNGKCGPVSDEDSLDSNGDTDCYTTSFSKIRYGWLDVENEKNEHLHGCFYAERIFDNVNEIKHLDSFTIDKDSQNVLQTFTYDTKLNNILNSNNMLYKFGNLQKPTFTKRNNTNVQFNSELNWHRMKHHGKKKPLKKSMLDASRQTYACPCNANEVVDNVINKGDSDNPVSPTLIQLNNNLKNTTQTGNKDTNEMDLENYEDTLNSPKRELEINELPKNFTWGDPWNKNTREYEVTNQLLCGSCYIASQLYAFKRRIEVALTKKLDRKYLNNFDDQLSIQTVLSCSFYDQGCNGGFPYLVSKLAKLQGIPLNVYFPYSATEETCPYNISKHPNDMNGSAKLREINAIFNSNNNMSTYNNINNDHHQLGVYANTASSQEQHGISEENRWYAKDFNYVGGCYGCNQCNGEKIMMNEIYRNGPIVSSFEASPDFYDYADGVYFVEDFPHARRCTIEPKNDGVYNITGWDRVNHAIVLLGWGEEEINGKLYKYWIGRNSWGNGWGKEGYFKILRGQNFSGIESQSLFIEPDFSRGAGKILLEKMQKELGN
Consider `CC(C)CCNC(=O)c1ccc2c(SCC(=O)O)c3c(nc2c1)CCCC3`, for which the “% Inhibition @ 10 uM” value is on record as 3.33%.
For `Cc1ccc(CNC(=O)c2cn(C3CCCCC3)c(=O)c3c2c2ccccc2n3C)o1`, the “% Inhibition @ 10 uM” value is reported as 0.163%.
For `CCN(CC)c1ccc(-c2nocc2C#N)cc1`, the “% Inhibition @ 10 uM” value is reported as 5.92%.
As for `O=C(NCCCSC1CCCCC1)c1ccc(CS(=O)c2ccccc2)o1` (centres unmarked), the “% Inhibition @ 10 uM” value is -6.89%.
Regarding `CC(C)C(=O)Nc1nnc(S(=O)(=O)N(C)Cc2ccccc2)s1`, the “% Inhibition @ 10 uM” value worked out at 4.73%.
For the compound `CC1(C(=O)O)NCCc2c1[nH]c1ccccc21` (centres unmarked), the “% Inhibition @ 10 uM” value was -3.41%.
For `Cc1ccc(/C(O)=C/c2nc3ccccc3nc2O)c(C)c1`, the “% Inhibition @ 10 uM” value was determined as 2.51%.
With `O=C(O)c1ccc(CN2CCN(c3cccc(C(F)(F)F)c3)CC2)cc1` the figure was -1.07%; with `CCc1nnc(NC(=O)C(=O)c2cc(C)n(CCOC)c2C)s1`, 3.92%.
As to `CC12CC(NC(=S)N1)c1cc(F)ccc1O2` (centres unmarked), the “% Inhibition @ 10 uM” value came to 0.351%.
Take `COc1ccc2cc3cc(C(=O)N4CCN(Cc5ccccc5)CC4)sc3nc2c1`: the “% Inhibition @ 10 uM” value is on record as 4.61%.
Take `Cc1c(CCC(=O)NCc2ccccc2Cl)c(=O)oc2cc(O)ccc12`: the “% Inhibition @ 10 uM” value was 0.895%.
For the compound `CCOc1ccc(N(CC(=O)NC2CC2)S(=O)(=O)c2ccc(Cl)cc2)cc1`, the “% Inhibition @ 10 uM” value is -5.13%.
`Cc1ccc2n(n1)c(O)c(Cc1ccccc1)c(=O)[n+]2-c1ccccc1`: the “% Inhibition @ 10 uM” value is on record as 0.956%.
As for `Cn1ccc(-c2cc(-c3ccccc3)nc(-c3ccccc3)c2)c1`, the “% Inhibition @ 10 uM” value was -5.68%.
The same measure for `O=C(O)c1ccc(CN2C(=O)c3cccnc3C2=O)cc1`: 2.84%; for `CCOCCCNC(=O)C1CCCCN1S(=O)(=O)c1ccc(C(C)(C)C)cc1` (centres unmarked): -6.5%; for `CCCN1CCC(NCC(C)c2ccccc2)CC1` (centres unmarked): -2.02%.
On to `C/C(Cl)=C/Cc1c(C)nc2ccc(C)cc2c1O`, for which the “% Inhibition @ 10 uM” value is recorded as 1%.
The same measure for `CN(C)/C=C/c1c([N+](=O)[O-])c2ccc(O)cc2n1-c1ccccc1`: -6.83%; for `CCOc1ccccc1-n1c(SCC(=O)NCc2ccco2)nc2nnc(C)c-2c1N`: -3.93%.
Regarding `CCN(CC)CCN(C)C/C=C/c1ccc(N(C)C)cc1`, the “% Inhibition @ 10 uM” value is -2.95%.
As to `CCN(CCN(C)C)C(=O)Cn1nc(Cc2ccncc2)c2ccccc2c1=O`, the “% Inhibition @ 10 uM” value worked out at 5.09%.
With `CCOC(=O)C1=CN(Cc2ccc(Cl)cc2)C=C(C(=O)OCC)C1c1cccc(OC)c1OC` the figure was -1.48%; with `CCC(=O)Nc1ccc2c(c1)oc1ccccc12`, -2.94%.
With `COc1ccc(Br)cc1CN1CCN(Cc2ccncc2)CC1` the figure was 0.611%.
With `Cc1cccc(NC(=O)C23CC4CC(C2)CC(n2cnc(Br)n2)(C4)C3)c1C`, the “% Inhibition @ 10 uM” value stood at 3.56%.
The same measure for `COc1ccc(NC(=O)C2=C(C)NC(=O)NC2c2ccccc2Br)cc1` (centres unmarked): -5.9%; for `O=S(=O)(CCc1nc2ccccc2s1)c1ccc(Cl)cc1`: 1.64%.
The same measure for `CN(Cc1ccccc1)C(=O)CN1C(=O)c2ccccc2S1(=O)=O`: -1.65%; for `COc1ncc(-c2ccc(C(=O)N[C@@H](CC(C)C)C(=O)NCC#N)cc2)c(OC)n1`: 3.19%; for `CCOC(=O)C1=C(C)N=c2s/c(=C\c3cn(C)c4ccccc34)c(=O)n2C1c1ccccc1` (centres unmarked): 1.39%.
With `CCc1cccc(NC(=O)C2CCCCC2C(=O)O)c1` (centres unmarked) the figure was 5.14%; with `COc1ccc2c3ncn(CCCN4CCN(C5CCCCC5)CC4)c(O)c-3nc2c1`, 4.8%; with `N#CC1=C(N)SC(N)=C(C#N)C1c1ccc(Cl)cc1Cl`, 5.08%.
Take `COc1ccc(CNc2ncnc3c2cnn3C)cc1`: the “% Inhibition @ 10 uM” value is given as -0.95%.
For the compound `Cc1ccc(CNC(=O)CCC(=O)n2nc(C)c3ccccc32)cc1`, the “% Inhibition @ 10 uM” value was 3.84%.
As to `CC(NC(=O)c1ccccc1)c1nc2ccccc2n1Cc1ccccc1` (centres unmarked), the “% Inhibition @ 10 uM” value is -0.551%.
With `COc1ccc(-c2csc(N3CCN(c4nc(-c5ccccc5)cs4)CC3)n2)cc1`, the “% Inhibition @ 10 uM” value is -0.834%.
Turning to `C=C(C)Cn1c(CCNC(=O)COc2ccccc2)nc2ccccc21`, the “% Inhibition @ 10 uM” value is 3.49%.
Turning to `COc1ccc(N/C(=N\C(C)=O)Nc2nc(C)cc(C)n2)cc1`, the “% Inhibition @ 10 uM” value was found to be 3.79%.
For `CC1CCN(C(=O)CSc2nnc(CNC(=O)c3ccccc3F)o2)CC1`, the “% Inhibition @ 10 uM” value is listed as -7.21%.
With `CCc1ncc(C(O)(c2ccccc2)c2ccc(C)cc2)n1C` (centres unmarked), the “% Inhibition @ 10 uM” value is -9.94%.
On to `Cc1cc2nc(SCC(=O)Nc3ccc4c(c3)OCO4)[nH]c2cc1C`, for which the “% Inhibition @ 10 uM” value is reported as 15.7%.
The same measure for `O=C(c1noc2c1CCCCC2)N1CCN(c2ccccn2)CC1`: -9.57%; for `O=[N+]([O-])c1ccc(Cl)cc1CN1CCc2ccccc2C1`: 1.55%; for `Cc1noc(NS(=O)(=O)c2ccc(NC(=O)C(C)Oc3ccc(C(C)(C)C)cc3)cc2)c1C` (centres unmarked): 1.65%.
Turning to `COc1cccc(OC)c1C(=O)Nc1ccncc1`, the “% Inhibition @ 10 uM” value stood at 0.889%.
The same measure for `CCc1nnc2sc(-c3ccccc3Cl)nn12`: 0.635%; for `CC(=O)c1ccc(S(=O)(=O)N2CCCCC2)cc1`: -2.42%.
For `COc1cc(C(=O)NCCC(=O)NCc2ccc3c(c2)OCO3)cc(OC)c1OC`, the “% Inhibition @ 10 uM” value is listed as -2.26%.
Turning to `O=C(NCc1ccc(F)cc1)c1noc2c1CCc1ccccc1-2`, the “% Inhibition @ 10 uM” value is on record as -9.28%.
With `Cn1c(=O)c2c(nc(Cl)n2CC(=O)NC(C)(C)C)n(C)c1=O` the figure was 0.611%; with `CCOc1ccccc1-n1c(C)cc(/C=C2/C(=N)N3C=CSC3=NC2=O)c1C`, 2.25%.
As to `Cc1ccc[n+](CC(=O)N2CCCCC2)c1C`, the “% Inhibition @ 10 uM” value was determined as 3.72%.
Regarding `CCOC(=O)c1c(NC(=O)c2nc(SCC)ncc2Cl)sc(C)c1C`, the “% Inhibition @ 10 uM” value is -1.11%.
For the compound `O=C(CC(=O)c1ccc([N+](=O)[O-])cc1)Nc1ccccc1Cl`, the “% Inhibition @ 10 uM” value was -2.66%.
The same measure for `CC(=O)c1ccc(N2CCN(Cc3ccc(C)cc3C)CC2)cc1`: -5.11%; for `N#C/C(=C\c1ccc([N+](=O)[O-])cc1)c1nc(-c2ccc(Br)cc2)cs1`: -2.51%.
With `CCOc1ccc(NC(=O)c2ccc(S(=O)(=O)N3CCCCC3C)cc2)cc1` (centres unmarked) the figure was -1.59%; with `CCOC(=O)/C(C#N)=C/c1c(Oc2ccc(Cl)c(C)c2)nc2c(C)cccn2c1=O`, 5.21%.
In the case of `O=C1CC(c2ccc(C(F)(F)F)cc2)C2=C(CC(c3ccc(F)cc3)CC2=O)N1` (centres unmarked), the “% Inhibition @ 10 uM” value amounted to 1.31%.
The same measure for `Cc1nc2ncnn2c(C)c1CCC(=O)NC(C)CCc1ccco1` (centres unmarked): -8.02%.
With `C=CCn1c(SCC(=O)Nc2ccccc2)nc2scc(-c3ccc(C)o3)c2c1=O` the figure was -9.58%.
Take `Cc1ccc(C2CC(=O)C(/C=N/CCN3CCN(C(=O)c4ccccc4)CC3)=C(O)C2)cc1` (centres unmarked): the “% Inhibition @ 10 uM” value is on record as 0.121%.
With `C=CCc1cc(/C=C2/NC(=O)NC2=O)cc(OCC)c1OCc1ccc(Cl)c(Cl)c1` the figure was -3.06%; with `CCc1ccccc1NC(=O)CSC1=C(C#N)C(c2ccccc2)CC(=O)N1` (centres unmarked), -1.06%.
With `O=C(Nc1ccc(Nc2ccccc2)cc1)C1CC1c1ccccc1` (centres unmarked), the “% Inhibition @ 10 uM” value is -0.807%.
On to `CC(C)OC(=O)c1cccnc1SCc1cc(=O)n2ccccc2n1`, for which the “% Inhibition @ 10 uM” value is given as 0.387%.
On to `CCC(CO)Nc1ncnc2c1cnn2C` (centres unmarked), for which the “% Inhibition @ 10 uM” value amounted to 2.4%.
As for `COC(=O)Nc1nc2sc3c(c2s1)CCCC3`, the “% Inhibition @ 10 uM” value is 3.01%.
Turning to `O=C(c1c(Cl)cccc1Cl)N1CCN(Cc2ccccc2)CC1`, the “% Inhibition @ 10 uM” value came out at 1.67%.
Turning to `O=C(OCC1c2ccccc2-c2ccccc21)N1CCOCC1`, the “% Inhibition @ 10 uM” value is reported as -2.18%.
`Cc1nn(-c2ccccc2)c2nc(C3CC3)cc(C(=O)O)c12`: the “% Inhibition @ 10 uM” value turned out to be 4.9%.
Take `C1CC(NC2CC2)CCN1`: the “% Inhibition @ 10 uM” value turned out to be 6.56%.
Consider `COc1ccc(/C=C/C2=CCN(C)CC2)cc1`, for which the “% Inhibition @ 10 uM” value is reported as -6.06%.
For `COc1ccccc1NC(=O)c1ccc(N)cc1C(=O)O`, the “% Inhibition @ 10 uM” value came out at 5.17%.
Take `COc1ccc(N2CCN(C(=O)c3ccc(N(C)S(=O)(=O)c4ccccc4)cc3)CC2)cc1`: the “% Inhibition @ 10 uM” value is reported as -11.1%.
`Cc1oc(-c2cccs2)nc1CSCC(=O)NCc1ccccc1Cl`: the “% Inhibition @ 10 uM” value was -4.71%.
With `COc1ccc2nc(SC(=O)c3ccccc3Cl)nc(C)c2c1` the figure was 30.9%; with `CC(Cc1ccc(F)cc1)N1CCN(C=O)CC1` (centres unmarked), -0.0648%; with `COc1cc(/C=C(\C#N)c2nc3ccccc3s2)cc(OC)c1OC`, -1.93%.
For the compound `CCN1CCC(N2CCCC3CCCCC32)CC1` (centres unmarked), the “% Inhibition @ 10 uM” value was -1.81%.
With `CN(Cc1ccccc1)Cn1c(=S)oc2ccccc21` the figure was 7.66%; with `Cc1ccc(NC(=O)c2ccc([N+](=O)[O-])cc2Cl)c([N+](=O)[O-])c1`, -3.26%; with `Cc1ccccc1-c1nc(CN2CCCC(C(=O)NCCCSC3CCCCC3)C2)c(C)o1` (centres unmarked), 0.689%.
`COc1ccc(C(=O)N2N=C3CC(C)(C)OCC3C2c2ccccc2)cc1` (centres unmarked): the “% Inhibition @ 10 uM” value is -3.28%.
On to `Cc1nc2ccn(Cc3ccco3)c(=O)c2cc1C(=O)NCCCc1ccccc1`, for which the “% Inhibition @ 10 uM” value amounted to 1.28%.
For the compound `CCOC(=O)C1(C2(O)C(=O)c3ccccc3C2=O)CCCC1=O` (centres unmarked), the “% Inhibition @ 10 uM” value is listed as 24.4%.
Take `CC(=O)Nc1ccc(CN2CCC3(C=Cc4ccccc43)CC2)cc1`: the “% Inhibition @ 10 uM” value was found to be 1.74%.
Regarding `COCCn1c(N2CCN(CCO)CC2)nc2c1c(=O)[nH]c(=O)n2C`, the “% Inhibition @ 10 uM” value came to 0.635%.
Regarding `CCCCN(CCCC)C(=O)C1CCN(S(=O)(=O)c2c(C)noc2/C=C/c2cccs2)CC1`, the “% Inhibition @ 10 uM” value stood at 0.458%.
Turning to `CCOC(=O)C1=C(CN2CCN(CC)CC2)NC(=O)NC1c1ccc(OC)cc1` (centres unmarked), the “% Inhibition @ 10 uM” value is -4.46%.
With `O=C(CCSCCC(=O)Nc1ccc2c(c1)OCO2)Nc1ccc2c(c1)OCO2`, the “% Inhibition @ 10 uM” value is on record as -1.42%.
For the compound `COc1ccccc1CNC(=O)c1ccc(NC(=O)C(C)C)cc1`, the “% Inhibition @ 10 uM” value was -4.02%.
For the compound `COCCN1C(=O)c2ccccc2C(C(=O)NCc2ccc3c(c2)OCO3)C1c1cccs1` (centres unmarked), the “% Inhibition @ 10 uM” value came to 1.36%.
As for `CCOC(=O)c1cnn2c(C)cc(-c3ccc(F)cc3)nc12`, the “% Inhibition @ 10 uM” value is listed as -3.33%.
In the case of `CN1CCC(NCC(c2ccccc2)c2ccccc2)CC1`, the “% Inhibition @ 10 uM” value was determined as 3.68%.
With `O=C(NCc1cccnc1)c1nn2c(c1Cl)NC(c1ccccc1)CC2C(F)(F)F` (centres unmarked) the figure was 4.86%; with `C=C(C)CN(CC)Cc1ccc(C(=O)O)cc1`, -4.75%.
Take `C[C@H](NC(=O)CCc1ccccc1)c1ccccc1`: the “% Inhibition @ 10 uM” value worked out at 4.22%.
